{
  "source": "the supplement of paper PMC8728848",
  "binders": {"B1": {"name": "LSectin (Mus musculus), Q8BNX1 (protein)", "chain": "MNTGEYNKLGSAIEEVSRGQLGRWECYKQRLFFLVLALLVATVLWALILSTLLSSASSKLRVLLSHQDLLRTNASEQKMTLSSLKDDIGACRNCCSVTKAQLQTTLAEFKDIQAKLMEQESILKELQERVTQDLAKASRDRENIRSELFQALEAVKRQNSSCEQCPPSWLPFQGSCYYFSETQATWDTAQSYCGGQGAHLVIVRGLNEQGFLSQHTRGRGYWLGLRAVRHLNKIQGYRWVDGASLNFSHWNSGEPNDSRGHEDCIMMLHSGLWNDAPCTNERDGWICEKRSSCY"}},
  "test_in_all_cases": "glycan array binding signal (z-score within array); higher = stronger binding",
  "conditions_in_all_cases": "glycan notation: IUPAC condensed, linker removed",
  "key": {"[1]": {"biological_target": "Man(a1-2)Man(a1-3)Man", "summary_of_the_method": "(§1)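 Columns mapping to the same glycan were averaged after glycan names were converted to IUPAC-condensed notation. The data come from 3228 arrays in the Consortium for Functional Glycomics database, limited to those with an available protein sequence. Binding is reported as a within-array Z-score averaged across arrays of one protein sequence and across linkers.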"}, "[2]": {"biological_target": "Man(a1-2)Man(a1-3)[Man(a1-2)Man(a1-6)]Man", "summary_of_the_method": "as §1"}, "[3]": {"biological_target": "Man(a1-2)Man(a1-3)[Man(a1-2)Man(a1-6)]Man(a1-6)[Man(a1-2)Man(a1-2)Man(a1-3)]Man", "summary_of_the_method": "as §1"}, "[4]": {"biological_target": "Man(a1-2)Man(a1-3)[Man(a1-2)Man(a1-6)]Man(a1-6)[Man(a1-2)Man(a1-2)Man(a1-3)]Man(b1-4)GlcNAc(b1-4)GlcNAc", "summary_of_the_method": "as §1"}, "[5]": {"biological_target": "Man(a1-2)Man(a1-3)[Man(a1-6)]Man(a1-6)[Man(a1-2)Man(a1-3)]Man(b1-4)GlcNAc(b1-4)GlcNAc", "summary_of_the_method": "as §1"}, "[6]": {"biological_target": "Man(a1-2)Man(a1-6)[Man(a1-3)]Man(a1-6)[Man(a1-2)Man(a1-2)Man(a1-3)]Man", "summary_of_the_method": "as §1"}, "[7]": {"biological_target": "Man(a1-2)Man(a1-6)[Man(a1-3)]Man(a1-6)[Man(a1-2)Man(a1-2)Man(a1-3)]Man(b1-4)GlcNAc(b1-4)GlcNAc", "summary_of_the_method": "as §1"}, "[8]": {"biological_target": "Man(a1-3)[Man(a1-6)]Man", "summary_of_the_method": "as §1"}, "[9]": {"biological_target": "Man(a1-3)[Man(a1-6)]Man(a1-6)[Man(a1-2)Man(a1-3)]Man(b1-4)GlcNAc(b1-4)GlcNAc", "summary_of_the_method": "as §1"}, "[10]": {"biological_target": "Man(a1-3)[Man(a1-6)]Man(a1-6)[Man(a1-3)]Man", "summary_of_the_method": "as §1"}, "[11]": {"biological_target": "Man(a1-3)[Man(a1-6)]Man(a1-6)[Man(a1-3)]Man(b1-4)GlcNAc(b1-4)GlcNAc", "summary_of_the_method": "as §1"}, "[12]": {"biological_target": "Man(a1-3)[Man(a1-6)]Man(b1-4)GlcNAc(b1-4)GlcNAc", "summary_of_the_method": "as §1"}, "[13]": {"biological_target": "Man(a1-6)Man", "summary_of_the_method": "as §1"}, "[14]": {"biological_target": "Man(b1-4)GlcNAc", "summary_of_the_method": "as §1"}, "[15]": {"biological_target": "Neu5Ac(a2-3)Gal", "summary_of_the_method": "as §1"}, "[16]": {"biological_target": "Neu5Ac(a2-3)Gal(b1-3)GalNAc", "summary_of_the_method": "as §1"}, "[17]": {"biological_target": "Neu5Ac(a2-3)Gal(b1-3)GalNAc(b1-3)Gal(a1-4)Gal(b1-4)Glc", "summary_of_the_method": "as §1"}, "[18]": {"biological_target": "Neu5Ac(a2-3)Gal(b1-3)GalNAc(b1-3)Gal(b1-4)GlcNAc", "summary_of_the_method": "as §1"}, "[19]": {"biological_target": "Neu5Ac(a2-3)Gal(b1-3)GalNAc(b1-4)[Neu5Ac(a2-3)]Gal(b1-4)Glc", "summary_of_the_method": "as §1"}, "[20]": {"biological_target": "Neu5Ac(a2-3)Gal(b1-3)GalNAc(b1-4)[Neu5Ac(a2-8)Neu5Ac(a2-3)]Gal(b1-4)Glc", "summary_of_the_method": "as §1"}, "[21]": {"biological_target": "Neu5Ac(a2-3)Gal(b1-3)GalNAc6S", "summary_of_the_method": "as §1"}, "[22]": {"biological_target": "Neu5Ac(a2-3)Gal(b1-3)GlcNAc", "summary_of_the_method": "as §1"}, "[23]": {"biological_target": "Neu5Ac(a2-3)Gal(b1-3)GlcNAc(b1-2)Man(a1-3)[Neu5Ac(a2-3)Gal(b1-3)GlcNAc(b1-2)Man(a1-6)]Man(b1-4)GlcNAc(b1-4)GlcNAc", "summary_of_the_method": "as §1"}, "[24]": {"biological_target": "Neu5Ac(a2-3)Gal(b1-3)GlcNAc(b1-3)Gal(b1-3)GlcNAc", "summary_of_the_method": "as §1"}, "[25]": {"biological_target": "Neu5Ac(a2-3)Gal(b1-3)GlcNAc(b1-3)Gal(b1-4)GlcNAc", "summary_of_the_method": "as §1"}, "[26]": {"biological_target": "Neu5Ac(a2-3)Gal(b1-3)GlcNAc(b1-3)GalNAc", "summary_of_the_method": "as §1"}, "[27]": {"biological_target": "Neu5Ac(a2-3)Gal(b1-3)GlcNAc6S", "summary_of_the_method": "as §1"}, "[28]": {"biological_target": "Neu5Ac(a2-3)Gal(b1-3)[Fuc(a1-4)]GlcNAc", "summary_of_the_method": "as §1"}, "[29]": {"biological_target": "Neu5Ac(a2-3)Gal(b1-3)[Fuc(a1-4)]GlcNAc(b1-3)Gal(b1-3)[Fuc(a1-4)]GlcNAc", "summary_of_the_method": "as §1"}, "[30]": {"biological_target": "Neu5Ac(a2-3)Gal(b1-3)[Fuc(a1-4)]GlcNAc(b1-3)Gal(b1-4)[Fuc(a1-3)]GlcNAc", "summary_of_the_method": "as §1"}, "[31]": {"biological_target": "Neu5Ac(a2-3)Gal(b1-3)[Neu5Ac(a2-3)Gal(b1-4)]GlcNAc", "summary_of_the_method": "as §1"}, "[32]": {"biological_target": "Neu5Ac(a2-3)Gal(b1-3)[Neu5Ac(a2-6)]GalNAc", "summary_of_the_method": "as §1"}, "[33]": {"biological_target": "Neu5Ac(a2-3)Gal(b1-4)Glc", "summary_of_the_method": "as §1"}, "[34]": {"biological_target": "Neu5Ac(a2-3)Gal(b1-4)GlcNAc", "summary_of_the_method": "as §1"}, "[35]": {"biological_target": "Neu5Ac(a2-3)Gal(b1-4)GlcNAc(b1-2)Man(a1-3)[GlcNAc(b1-2)Man(b1-4)GlcNAc(b1-2)Man(a1-6)]Man(b1-4)GlcNAc(b1-4)GlcNAc", "summary_of_the_method": "as §1"}, "[36]": {"biological_target": "Neu5Ac(a2-3)Gal(b1-4)GlcNAc(b1-2)Man(a1-3)[Neu5Ac(a2-6)Gal(b1-4)GlcNAc(b1-2)Man(a1-6)]Man(b1-4)GlcNAc(b1-4)GlcNAc", "summary_of_the_method": "as §1"}, "[37]": {"biological_target": "Neu5Ac(a2-3)Gal(b1-4)GlcNAc(b1-3)Gal", "summary_of_the_method": "as §1"}},
  "note": "The other results are listed elsewhere or left out.",
  "data": [
    {"binder": "B1", "values": [
      {"measurement": "glycan array binding signal (z-score)", "setting": "[1]", "value": -0.133},
      {"measurement": "glycan array binding signal (z-score)", "setting": "[2]", "value": -0.178},
      {"measurement": "glycan array binding signal (z-score)", "setting": "[3]", "value": -0.165},
      {"measurement": "glycan array binding signal (z-score)", "setting": "[4]", "value": -0.175},
      {"measurement": "glycan array binding signal (z-score)", "setting": "[5]", "value": -0.172},
      {"measurement": "glycan array binding signal (z-score)", "setting": "[6]", "value": -0.177},
      {"measurement": "glycan array binding signal (z-score)", "setting": "[7]", "value": -0.184},
      {"measurement": "glycan array binding signal (z-score)", "setting": "[8]", "value": -0.163},
      {"measurement": "glycan array binding signal (z-score)", "setting": "[9]", "value": 0.098},
      {"measurement": "glycan array binding signal (z-score)", "setting": "[10]", "value": -0.171},
      {"measurement": "glycan array binding signal (z-score)", "setting": "[11]", "value": -0.172},
      {"measurement": "glycan array binding signal (z-score)", "setting": "[12]", "value": -0.021},
      {"measurement": "glycan array binding signal (z-score)", "setting": "[13]", "value": -0.173},
      {"measurement": "glycan array binding signal (z-score)", "setting": "[14]", "value": -0.174},
      {"measurement": "glycan array binding signal (z-score)", "setting": "[15]", "value": -0.148},
      {"measurement": "glycan array binding signal (z-score)", "setting": "[16]", "value": -0.171},
      {"measurement": "glycan array binding signal (z-score)", "setting": "[17]", "value": -0.166},
      {"measurement": "glycan array binding signal (z-score)", "setting": "[18]", "value": -0.172},
      {"measurement": "glycan array binding signal (z-score)", "setting": "[19]", "value": -0.184},
      {"measurement": "glycan array binding signal (z-score)", "setting": "[20]", "value": -0.175},
      {"measurement": "glycan array binding signal (z-score)", "setting": "[21]", "value": -0.155},
      {"measurement": "glycan array binding signal (z-score)", "setting": "[22]", "value": -0.154},
      {"measurement": "glycan array binding signal (z-score)", "setting": "[23]", "value": -0.171},
      {"measurement": "glycan array binding signal (z-score)", "setting": "[24]", "value": -0.178},
      {"measurement": "glycan array binding signal (z-score)", "setting": "[25]", "value": -0.186},
      {"measurement": "glycan array binding signal (z-score)", "setting": "[26]", "value": -0.197},
      {"measurement": "glycan array binding signal (z-score)", "setting": "[27]", "value": -0.188},
      {"measurement": "glycan array binding signal (z-score)", "setting": "[28]", "value": -0.162},
      {"measurement": "glycan array binding signal (z-score)", "setting": "[29]", "value": -0.184},
      {"measurement": "glycan array binding signal (z-score)", "setting": "[30]", "value": -0.149},
      {"measurement": "glycan array binding signal (z-score)", "setting": "[31]", "value": -0.18},
      {"measurement": "glycan array binding signal (z-score)", "setting": "[32]", "value": -0.161},
      {"measurement": "glycan array binding signal (z-score)", "setting": "[33]", "value": -0.179},
      {"measurement": "glycan array binding signal (z-score)", "setting": "[34]", "value": -0.163},
      {"measurement": "glycan array binding signal (z-score)", "setting": "[35]", "value": -0.183},
      {"measurement": "glycan array binding signal (z-score)", "setting": "[36]", "value": -0.164},
      {"measurement": "glycan array binding signal (z-score)", "setting": "[37]", "value": -0.191}
    ]}
  ]
}
